In PubChem BioAssay AID485281 (National Center for Advancing Translational Sciences (NCATS), 2010):
Several values for one entry are separate records, joined by “and”; a condition that tells them apart may be missing. Equal values may be shown once. The whole screen tested about 350,000 compounds, of which about 260 (0.074%) were called active. This list was built around the results that the source calls inconclusive (neither active nor inactive); the mix of calls is not that of the screen. Calls follow the shape of the dose curve; as a rule, active = well fitted inhibition curve with a large enough effect; inconclusive = small, poorly fitted or top-dose-only effect; inactive = no such curve, though single readings can be large or run the other way. Potencies of inconclusive entries are doubtful fits and often do not repeat.

Molecular target: Ferritin light chain (Equus caballus) (UniProt P02791)
Assay: qHTS Assay for Identification of Novel General Anesthetics; also: nearly all actives have a fitted effect of over 20% in size
Settings: apoferritin/1-aminoanthracene competitive binding, fluorescence; activity change, negative = displacement: at 77.5 µM (top of the series)
Procedure, shortened: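 Steps: apoferritin (10 uM) was premixed with half-saturated 1-AMA in PBS, compounds were pin-transferred, plates stood 10 min at room temperature, fluorescence was read at 380/535 nm, and curves were fitted with a Hill equation.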
% is scaled to controls: 0 for no effect and ±100 for the full control effect; tags tell the direction and shape of the fitted curve.

Chain of UniProt P02791 (P02791 whole entry, looked up): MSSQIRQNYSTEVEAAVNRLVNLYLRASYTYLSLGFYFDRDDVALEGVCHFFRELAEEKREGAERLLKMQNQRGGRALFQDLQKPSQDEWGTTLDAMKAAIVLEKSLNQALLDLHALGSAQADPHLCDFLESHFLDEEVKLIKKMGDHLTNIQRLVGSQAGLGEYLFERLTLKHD

Potency, inconclusive:
CS/C(=C/[N+](=O)[O-])Nc1cccc2c1C(C)CC2(C)C (stereo unspecified) 31.6 µM [inhibitor, partial curve]
Cc1ccc(NC(=O)c2c(C(=O)Nc3ccccc3)sc3nc(C)cc(=O)n23)cc1 35.5 µM [inhibitor, partial curve]
Cc1cccc(OCCCSc2nc(-c3ccc(C(C)(C)C)cc3)nc3cc(=O)[nH]n23)c1C 56.2 µM [inhibitor, partial curve]
Cc1ccc2c(c1)C(O)(CC(=O)/C=C/C=C/c1ccccc1)C(=O)N2 (stereo unspecified) 31.6 µM [inhibitor, partial curve]
Cc1ccc(C)c(OCC(=O)Nc2nonc2NC(=O)COc2cc(C)ccc2C)c1 7.94 µM [inhibitor, partial curve]
CCN(CC)CC(O)COCCC12CC3CC(CC(C3)C1)C2 (stereo unspecified) 31.6 µM [inhibitor, partial curve]
CSc1ccc(C(=O)N2CCc3ccc(NC(=O)c4ccccn4)cc3C2)cc1 35.5 µM [inhibitor, partial curve, poor fit]
Cc1cccc(-c2noc(CCc3ccccc3)n2)c1 14.1 µM [inhibitor, partial curve]
COc1cc2c(cc1OC)CN(c1nc(-c3cccnc3)nc3ccccc13)CC2 35.5 µM [inhibitor, single point]
COc1ccccc1N1C(=O)C(Cl)=C(N2CCCC2)C1=O 31.6 µM [inhibitor, partial curve]
O=C(COC(=O)c1cccc2ccccc12)Nc1ncc(C(F)(F)F)cc1Cl 6.31 µM [inhibitor, partial curve]
c1nnc2c3c4c(sc3ncn12)CCC4 8.91 µM [inhibitor, partial curve]
COc1ccc(CC(=O)OCC(=O)Nc2ccc(Cl)c(S(=O)(=O)N(C)C)c2)cc1 17.8 µM [inhibitor, partial curve]
Cn1c(CO)c(-c2ccccc2)c2cc([N+](=O)[O-])ccc21 28.2 µM [inhibitor, partial curve]
COc1ccc(CC(=O)N2CCCC(C)C2)cc1 (stereo unspecified) 14.1 µM [inhibitor, partial curve]
COc1ccc(/C=N/NC(=O)c2ccn[nH]2)cc1COc1ccc(F)cc1 35.5 µM [inhibitor, partial curve]
Cc1ccc(S(=O)(=O)NC2CCCCC2)c2nsnc12 28.2 µM [inhibitor, partial curve]
CCc1nnc(NS(=O)(=O)c2ccc(N=Cc3c(C)[nH]n(-c4ccc(C)cc4)c3=O)cc2)s1 28.2 µM [inhibitor, partial curve, poor fit]
Cc1ccc(C(=O)O/N=C(\N)Cc2cccs2)c(Cl)c1 56.2 µM [inhibitor, single point]
Cc1ccc(CSC2=Nc3ccccc3C3=NC(CC(=O)NCc4ccco4)C(=O)N23)cc1 (stereo unspecified) 31.6 µM [inhibitor, single point]
Cc1c(C(=O)Nc2ccccc2Br)oc2ccc(S(=O)(=O)N3CCOCC3)cc12 11.2 µM [inhibitor, single point]
CCC1CN(C(=O)N2CCC(C(=O)N3CCN(c4ccc(F)cc4)CC3)CC2)c2ccccc2O1 (stereo unspecified) 3.16 µM [inhibitor, full curve, poor fit]
CCOc1ccc(-n2cc(C(=O)c3cc(Cl)ccc3O)cc(C#N)c2=O)cc1 15.8 µM [inhibitor, partial curve]
CCCc1nnc(NC(=O)CSc2nc3ccccc3[nH]2)s1 35.5 µM [inhibitor, single point]
CCCCN1C2=C(C(=O)CCC2)C(c2ccc(Cl)c(Cl)c2)C2=C1c1ccccc1C2=O (stereo unspecified) 11.2 µM [inhibitor, partial curve]
COc1ccc(OC(C)C(=O)NCCC2=CCCCC2)cc1 (stereo unspecified) 12.6 µM [inhibitor, partial curve]
COc1cccc(C2c3c(oc4cc(C)c(C)cc4c3=O)C(=O)N2CCCN(C)C)c1 (stereo unspecified) 20 µM [inhibitor, partial curve]
CN(C)CCCn1cc(C2=C(c3c[nH]c4ccccc34)C(=O)NC2=O)c2ccccc21 35.5 µM [inhibitor, partial curve] and 31.6 µM [inhibitor, partial curve]
O=C(CN(c1ccc(F)cc1)S(=O)(=O)c1ccccc1)NC1CC2CCC1C2 (stereo unspecified) 50.1 µM [inhibitor, single point]
Cc1cc(C)cc(NC(=S)Nc2cccc3cnccc23)c1 31.6 µM [inhibitor, partial curve]
CCSc1ncc(Cl)c(C(=O)N(Cc2ccc(C(C)(C)C)cc2)C2CCS(=O)(=O)C2)n1 (stereo unspecified) 10 µM [inhibitor, partial curve]
CC(C)(C)c1cc(OC(=O)c2ccccc2F)ccc1O 50.1 µM [inhibitor, single point]
NNC(=O)C1CCCN1S(=O)(=O)c1ccc(Cl)cc1 (stereo unspecified) 22.4 µM [inhibitor, partial curve]
O=C(NNC(=O)c1cc(OCC(F)(F)F)ccc1OCC(F)(F)F)c1ccc(Cl)c(Cl)c1 17.8 µM [inhibitor, partial curve]
CC(C)c1cc2c(c(O)c1O)[C@@]13CCCC(C)(C)C1CC2OC3=O (stereo partly specified) 15.8 µM [inhibitor, partial curve]
O=C(CCN1C(=O)/C(=C/c2ccc(Cl)cc2)SC1=S)NCCCn1ccnc1 31.6 µM [inhibitor, partial curve]
C=CCn1c(C)cc(C(=O)COC(=O)C2CC(=O)N(Cc3ccccc3)C2)c1C (stereo unspecified) 44.7 µM [inhibitor, single point]
O=C(COc1cccc(NC(=O)c2cccc([N+](=O)[O-])c2)c1)c1ccc(Br)cc1 5.62 µM [inhibitor, partial curve]
Cc1ccccc1Cn1ccc(NC(=O)c2nn3cccnc3c2Cl)n1 35.5 µM [inhibitor, partial curve]
COc1ccc(NC(=O)C=C(C)C)cc1Cl 39.8 µM [inhibitor, partial curve]
COc1ccc(Cc2nnc(NC(=O)C3CCCO3)s2)cc1 (stereo unspecified) 14.1 µM [inhibitor, partial curve, poor fit]
NNC(=O)c1ccc(N2CCc3ccccc32)c([N+](=O)[O-])c1 35.5 µM [inhibitor, partial curve]
CC(C)C1O/C(=N/C(=O)Nc2ccc(Cl)c(Cl)c2)NC1=O (stereo unspecified) 22.4 µM [inhibitor, partial curve]
Cc1ccc(C(=O)C(C)OC(=O)CCN2C(=O)C3C4C=CC(C5CC45)C3C2=O)cc1 (stereo unspecified) 35.5 µM [inhibitor, partial curve]
Cc1ccc(OCC(O)Cn2c(=N)n(Cc3ccccc3)c3ccccc32)cc1 (stereo unspecified) 39.8 µM [inhibitor, single point]
O=C(COC(=O)[C@H](Cc1ccccc1)NC(=O)c1cccs1)NC1CCCCC1 56.2 µM [inhibitor, single point]
CCCCC(CC)C(=O)Nc1ccc(Nc2ccccc2)cc1 (stereo unspecified) 15.8 µM [inhibitor, partial curve, poor fit]
CC(C)(C)NC(=O)CSc1nc(Cc2ccccc2)nc2ccccc12 22.4 µM [inhibitor, partial curve]
CCOc1ccc(S(=O)(=O)Nc2ccc(OC)c(Cl)c2)c2cccnc12 25.1 µM [inhibitor, partial curve]

Activity change, negative = displacement, inactive:
Cc1ccc2nc(SCC(=O)N3c4ccccc4CC3C)c(C)cc2c1 (stereo unspecified) -4.48%
Cc1ccc(C(=O)NC(=S)NNC(=O)c2ccccc2)cc1 -11.5%
CC1=C(C(=O)Nc2ccc(C)cc2Cl)C2(CCCCC2)OC1=O 50.4%
CCOc1ccc(NC(=O)Cn2sc3nc(C)cc(C)c3c2=O)cc1 -6.1%
O=C(Cc1ccc(S(=O)(=O)N2CCOCC2)s1)N1CCN(c2cccc(C(F)(F)F)c2)CC1 -18.7%
CC(C)(C)OC(=O)N1CSC[C@H]1C(=O)NC[C@H](CC(=O)O)c1ccc(Cl)cc1 33.4%
COc1ccc(CN2CCN(C(=O)c3ccco3)CC2)cc1OCc1ccccc1 -12.6%
O=C(COc1ccc(S(=O)(=O)N2CCCCC2)cc1)N1CCCC1 4.28%
Cc1ccc(CNc2nc(C)nc3sc4c(c23)CCC4)cc1 -15.8%
O=C1/C(=C\c2ccc(-c3ccccc3[N+](=O)[O-])o2)C(c2ccccc2)=NN1c1ccccc1 -21%
CCSc1ncc(/C=N/Nc2ccc(Cl)cc2)n1C -8.96%
CCCN1C2CCCC1CC(NC(=O)Nc1ccc(C(C)C)cc1)C2 (stereo unspecified) -18.5%
Cc1ccc(Nc2nc(N)nc(CSc3nccn3C)n2)c(C)c1 -3.28%
Oc1ccc(-c2cn3c(n2)SCC3)cc1 -10.2%
COC(=O)CNC(=O)C1CCN(c2nc(C)cc(C)n2)CC1 -13.2%
Cc1ccc(-c2nc3c(c(=O)[nH]c(=O)n3Cc3ccccc3)n2C)o1 -19.5%

Activity change, negative = displacement, inconclusive:
CCCCOc1ccc(C(=O)Nc2cccc(-n3cnnn3)c2)cc1OC -25.4% [inhibitor]
